The values below come from patent US9034928B2, “Methods for metabolic imaging” (IMAGNX, Inc., priority 2011, dated 2015).

Structures can show the parent of a compound that is named as a salt.

The conditions of data set [1]: statement without a test; cited from earlier work.
For data set [2] the following is noted: has to be injected in a 20% ethanol aqueous solution; cited from earlier work.
For data set [3] the following is noted: statement without a test; cited from earlier work. The source holds these as a separate data set.
The next data set concerns TCA cycle. The conditions noted are these: statement without a test; cited from earlier work.
The target in a further data set is T1, succinate dehydrogenase (Mus musculus, UniProt Q8K2B3).
T1 construct: in a mouse before (spectrum A) and after (spectrum B) the mouse was injected with 3-nitropropionate; from tissue; host or cells: living mouse (whole animal, in vivo 13C MRS)
The data set is described as follows: 3-Nitropropionate inhibition, ^13C MRS before and after i.p. injection. It counts as in vivo. The protocol:
3-nitropropionate is a known irreversible inhibitor of succinate dehydrogenase.
FIG. 4 illustrates example ^13C MRS spectra illustrating hyperpolarized diethyl 1-^13C 2,3-d2 succinate in a mouse before (spectrum A) and after (spectrum B) the mouse was injected with 3-nitropropionate. […] The aqueous solution of 5 mg/ml of 3-nitropropionate (Sigma-Aldrich) was brought to a pH of 8.5 using a drop of 50% NaOH solution.

T1 sequence (Q8K2B3 43-664): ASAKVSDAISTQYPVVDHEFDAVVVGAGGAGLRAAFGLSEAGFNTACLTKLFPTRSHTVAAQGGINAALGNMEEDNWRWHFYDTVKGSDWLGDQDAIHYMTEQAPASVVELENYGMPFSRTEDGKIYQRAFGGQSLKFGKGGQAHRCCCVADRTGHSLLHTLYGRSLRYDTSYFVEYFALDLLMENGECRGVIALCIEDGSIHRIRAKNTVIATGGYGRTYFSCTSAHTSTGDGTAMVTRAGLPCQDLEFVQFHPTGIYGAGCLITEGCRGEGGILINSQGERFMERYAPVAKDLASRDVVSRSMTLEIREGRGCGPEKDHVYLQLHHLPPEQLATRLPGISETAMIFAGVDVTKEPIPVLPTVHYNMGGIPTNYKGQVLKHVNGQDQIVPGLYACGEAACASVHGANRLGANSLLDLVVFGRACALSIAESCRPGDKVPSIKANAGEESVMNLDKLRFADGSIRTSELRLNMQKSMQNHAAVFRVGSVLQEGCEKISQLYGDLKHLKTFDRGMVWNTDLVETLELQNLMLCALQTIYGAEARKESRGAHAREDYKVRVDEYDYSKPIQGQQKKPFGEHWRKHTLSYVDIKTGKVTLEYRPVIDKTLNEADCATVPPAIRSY
T1 sequence (Q9CQA3 31-282 partner): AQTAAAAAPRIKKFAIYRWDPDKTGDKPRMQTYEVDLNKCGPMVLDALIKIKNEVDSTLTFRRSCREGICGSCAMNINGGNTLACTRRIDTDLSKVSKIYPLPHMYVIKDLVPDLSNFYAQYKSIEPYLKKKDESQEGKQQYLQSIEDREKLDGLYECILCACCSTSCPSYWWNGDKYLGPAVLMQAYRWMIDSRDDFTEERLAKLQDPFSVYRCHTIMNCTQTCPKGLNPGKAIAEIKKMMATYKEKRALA
T1 sequence (Q9CZB0 30-169 partner): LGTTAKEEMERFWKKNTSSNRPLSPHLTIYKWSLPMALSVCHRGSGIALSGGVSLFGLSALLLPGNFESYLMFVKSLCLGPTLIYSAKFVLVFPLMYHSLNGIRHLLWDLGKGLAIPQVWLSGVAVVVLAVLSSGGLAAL
T1 sequence (Q9CXV1 57-159 partner): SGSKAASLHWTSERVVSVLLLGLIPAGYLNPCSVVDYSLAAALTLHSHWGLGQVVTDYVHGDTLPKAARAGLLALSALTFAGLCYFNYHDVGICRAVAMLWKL

Turning to `CCOC(=O)CCC(=O)OCC` [Diethyl succinate], in data set [1], the toxicity entry is “non-toxic”.

Regarding `[2H]C([2H])C([2H])([2H])[13C](=O)OCC(F)(F)C(F)F` [TFPP, 2,2,3,3-tetrafluoropropyl-1-^13C priopionate-d2,2,3,3], the water solubility entry in data set [2] was “not very water soluble”. Regarding `CCOC(=O)/C=C/C(=O)OCC` [Diethyl fumarate], the toxicity result in data set [1] is reported as “non-toxic”. Moreover, in data set [3], the “transport across biological membranes” value is “crosses biological membranes”. Also, the metabolism entry in the data set on TCA cycle was “metabolized in the TCA cycle”.

Regarding `O=C(O)CC[N+](=O)[O-]` [3-nitropropionate], the “downfield succinate resonance after 3-nitropropionate treatment” value at succinate dehydrogenase (200 μl of 5 mg/ml i.p., 20 minute wait, 10 μmol hyperpolarized diethyl 1-^13C 2,3-d2 succinate i.v.) is reported as “significantly reduced”. Moreover, on succinate dehydrogenase (after 3-nitropropionate treatment), the “mice with a reduction to complete loss of the succinate peak” value is “Three out of the four”. As to `CC[13C](=O)OCCO` [^13C 2-hydroxy ethyl propionate, reference compound], in data set [1], the toxicity result was “toxic”. Besides, in the data set on TCA cycle, the metabolism result is recorded as “not metabolized”.
